Assay results reported in patent US20060177831A1 (published 2006).

Columns and labels:
[1] = target: T1, c-MET extracellular domain (ECD)/Fc chimera (human, UniProt P08581 25-932); experiment: binding ELISA on c-MET ECD/Fc, NiNTA-pure
T1 construct: Bought (R&D Systems, carrier free); also called c-MET ECD/Fc; c-MET-ECD/Fc fusion; not shown: immunoglobulin Fc domain

[2] = target: T1, c-MET extracellular domain (ECD)/Fc …; experiment: binding ELISA on c-MET ECD/Fc, Q-pure
[3] = target: c-MET on A549 human lung adenocarcinoma cells (human, UniProt P08581); experiment: cell-based or functional assay
[4] = target: T1, c-MET extracellular domain (ECD)/Fc …; experiment: AlphaScreen competition with bn-HGF for c-MET ECD/Fc, NiNTA-pure
[5] = target: T1, c-MET extracellular domain (ECD)/Fc …; experiment: AlphaScreen competition with bn-HGF for c-MET ECD/Fc, Q-pure

Binder	Kd [1] [nM]	Kd [2] [nM]	IC50, inhibition of HGF-induced proliferation of serum-starved A549-SC cells (tritiated thymidine) [3] [nM]	IC50 [4] [nM]	IC50 [5] [nM]
Anti-c-MET recombined Avimer RecM12 (dimer) (designed binder, Two A domains in one chain; Assayed protein also bears HA and 6His tags; also called RM12; C420) CESNEFQCQSTSRCIPLTWRCDGDNDCEDSSDEKSCSAPASEPPGLEASGGSCPASEFTCRSTGRCISQGWVCDGDNDCEDSSDESPAICATTGPTSLQ	3.8	0.3	0.32	1	0.33
Anti-c-MET recombined Avimer monomer RecM02 (designed binder, Assayed protein also bears HA and 6His tags; also called C410) CESNEFQCQSTSRCIPLQWVCDGDNDCEDSSDEASCGCPGPGATSAPAASLQ	20.3	344	–	2	2
Anti-c-MET recombined Avimer RecM06 (dimer) (designed binder, Two A domains in one chain; Assayed protein also bears HA and 6His tags; also called C414) CQASDQFECKSTGRCIPLAWRCDGDNDCEDGSDESPAICGRPGLEASGGSCRANEFQCHSTGRCIPASWLCDGDNDCEDGSDEASCGRPGPGGTSAPAASLQ	0.4	0.7	–	1	2
CAADEFQCNSTGRCIPVNWLCDGDNDCEDSSDEENCSAPASEPPCSLSLQ (designed binder, Assayed protein also bears HA and 6His tags; also called C415) [Anti-c-MET recombined Avimer monomer RecM07]	3.5	5.4	–	1	13
Anti-c-MET recombined Avimer monomer RecM09 (designed binder, Assayed protein also bears HA and 6His tags; also called C417) CESNEFQCRSTGRCIPVSWVCDGDNDCEDSSDEASCGDSHILPFGTPGPSTSLQ	42.2	51.6	–	19	52
Anti-c-MET recombined Avimer RecM10 (dimer) (designed binder, Two A domains in one chain; Assayed protein also bears HA and 6His tags; also called C418) CRANEFQCHSTGRCIPASWLCDGDNDCEDSSDEAPDLCASAAPTSLQASGLEASGGSCHAPTQFECRSTGRCIPAAWVCDGDNDCEDGSDESPAICGRPGLGLGATSAPAASLQ	2	3.9	–	1	2
Anti-c-MET recombined Avimer RecM11 (dimer) (designed binder, Two A domains in one chain; Assayed protein also bears HA and 6His tags; also called C419) CLANEFTCRSTGRCIPLQWVCDGDNDCEDSSDEKGCGDSHILPGLEASGGSCPASQFPCRSTGRCIPAEWVCDGDNDCEDSSDEASRGDSHILPFSTPGPSTSLQ	1.1	0.3	–	1	1
CQSSEFTCKSTERCIPLTWVCDGDNDCEDGSDEENCSQDPEFHKVSLQ (designed binder, Assayed protein also bears HA and 6His tags; also called C135) [Anti-c-MET Avimer monomer M08]	130	–	–	80	–
CPSGEFQCRSTNRCIPETWLCDGDNDCEDGSDEESCTPPTSLQ (designed binder, Assayed protein also bears HA and 6His tags; also called C383) [Anti-c-MET Avimer monomer M22]	66	–	–	34	57
CAANEFQCHSTGRCIPLSWVCDGVNDCEDSSDETNCRAPTSEPKGSVSLQ (designed binder, Assayed protein also bears HA and 6His tags; also called C384) [Anti-c-MET Avimer monomer M23]	138	–	–	43	–
CESGEFQCHSTGRCIPASWLCDGDNDCEDGSDESQLCTAHTSLQ (designed binder, Assayed protein also bears HA and 6His tags; also called C386) [Anti-c-MET Avimer monomer M25]	74	–	–	11	29
CQPNEFQCHSTGRCIPASWLCDGDNDCEDGSDESQLCTAHTSLQ (designed binder, Assayed protein also bears HA and 6His tags; also called C393) [Anti-c-MET Avimer monomer M32]	232	–	–	20	69
CQSFTEFECHSTGRCIPASWLCDGDNDCEDSSDESPANCATPAHTSLQ (designed binder, Assayed protein also bears HA and 6His tags; also called C387) [Anti-c-MET Avimer monomer M26]	100	5.8	–	13	16
CVASEFTCRSTGRCIPESWRCDGDNDCEDSSDESPDLCSAPASEPPGSLQ (designed binder, Assayed protein also bears HA and 6His tags; also called C388) [Anti-c-MET Avimer monomer M27]	93	–	–	42	105
CGSSEFQCHSTGRCIPENWVCDGDDDCEDSSDEKSCTSAAPTSLQ (designed binder, Assayed protein also bears HA and 6His tags; also called C389) [Anti-c-MET Avimer monomer M28]	31	–	–	30	152
Anti-c-MET Avimer M34 (dimer) (designed binder, Two A domains in one chain; Assayed protein also bears HA and 6His tags; also called C395) CPSSQFTCHSTRRCIPQTWVCDGDNDCEDGSDETDCPPHTSLQKASSGGSCLANEFRCNSTGRCIPRAWLCDGDNDCEDSSDEKDCKQHTSLQ	556	–	–	3	2
CVSNEFPCQSTDRCIPRSWRCDGDNDCEDGSDEKDCSAPASEPPGSLSLQ (designed binder, Assayed protein also bears HA and 6His tags; also called C400) [Anti-c-MET Avimer monomer M39]	86	–	–	35	85
